Assay results: the supplement of paper PMC7125110
± gives the standard error. Variants at the background level are over-represented here.

B1: glmS ribozyme (parent)
chain: AUAAAAGCGCCAGAACUACAGAAAUGUAGUUGACGAGGAGGAGGUUUAUCGAAUUUUCGGCGGAUGCCUCCAAA

What was measured:
Conditions in all cases: with glucosamine-6-phosphate
glucosamine-6-phosphate [1] = variants of: B1; test: self-cleavage kobs at 640 uM GlcN6P; higher = faster cleavage; RNA array
How it was run: (§1)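 E. coli RNA polymerase transcribed barcoded ribozyme variants in situ on sequenced MiSeq chips, which were tracked via a hybridised Cy3 probe at 37 °C. Tiles were imaged over ~14 h after glucosamine-6-phosphate (40 μM to 10 mM) in HEPES/KCl/Mg(OAc)2 buffer was flowed in. Normalised per-tile medians were fit to one- or two-exponential decays for kobs, and kcat and KM came from weighted Michaelis–Menten fits.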

glucosamine-6-phosphate [2] = variants of: B1; test: self-cleavage kobs at 2500 uM GlcN6P; higher = faster cleavage; RNA array
How it was run: as §1

glucosamine-6-phosphate [3] = variants of: B1; test: self-cleavage kobs at 10000 uM GlcN6P; higher = faster cleavage; RNA array
How it was run: as §1

glucosamine-6-phosphate [4] = variants of: B1; test: self-cleavage kobs at 160 uM GlcN6P; higher = faster cleavage; RNA array
How it was run: as §1

Row | Variant | self-cleavage kobs at 640 uM GlcN6P (glucosamine-6-phosphate [1]) | self-cleavage kobs at 2500 uM GlcN6P (glucosamine-6-phosphate [2]) | self-cleavage kobs at 10000 uM GlcN6P (glucosamine-6-phosphate [3]) | self-cleavage kobs at 160 uM GlcN6P (glucosamine-6-phosphate [4])
1 | C58U C70A | 3.84e-05 ± 1.4e-05 s⁻¹ |  |  | 
2 | G60A G62A | < 1e-05 s⁻¹ |  |  | 
3 | G60U C71A | < 1e-05 s⁻¹ | < 1e-05 s⁻¹ | < 1e-05 s⁻¹ | 
4 | G60U G62A C67U | < 1e-05 s⁻¹ |  |  | 
5 | G60U G66U | < 1e-05 s⁻¹ |  | < 1e-05 s⁻¹ | < 1e-05 s⁻¹
6 | C61U C67U | < 1e-05 s⁻¹ |  |  | < 1e-05 s⁻¹
7 | G62A C67G | < 1e-05 s⁻¹ | < 1e-05 s⁻¹ |  | < 1e-05 s⁻¹
8 | G62A G63A | < 1e-05 s⁻¹ |  |  | < 1e-05 s⁻¹
9 | G62C C67G U69A | < 1e-05 s⁻¹ |  |  | 
10 | G62C C67G U69G | < 1e-05 s⁻¹ |  |  | 
11 | G62U C68U | < 1e-05 s⁻¹ |  |  | 
12 | G63A U65G | < 1e-05 s⁻¹ | < 1e-05 s⁻¹ | < 1e-05 s⁻¹ | 
13 | G63U U65A | < 1e-05 s⁻¹ | < 1e-05 s⁻¹ | < 1e-05 s⁻¹ | < 1e-05 s⁻¹
14 | A64U C67U C70U | < 1e-05 s⁻¹ |  |  | 
15 | G66U U69G | 5.52e-05 ± 2.5e-05 s⁻¹ | 4.9e-05 ± 2.2e-05 s⁻¹ |  | 
16 | A6C A36C A48U |  |  |  | < 1e-05 s⁻¹

Row | Variant | self-cleavage kobs at 640 uM GlcN6P (glucosamine-6-phosphate [1]) | self-cleavage kobs at 2500 uM GlcN6P (glucosamine-6-phosphate [2]) | self-cleavage kobs at 10000 uM GlcN6P (glucosamine-6-phosphate [3]) | self-cleavage kobs at 160 uM GlcN6P (glucosamine-6-phosphate [4])
17 | A6C A53U C70U |  |  |  | < 1e-05 s⁻¹
18 | A6C C10A A39C |  | < 1e-05 s⁻¹ |  | < 1e-05 s⁻¹
19 | A6C C16U G35A |  | < 1e-05 s⁻¹ |  | < 1e-05 s⁻¹
20 | A6C G32U G41U U65A |  | < 1e-05 s⁻¹ |  | < 1e-05 s⁻¹
21 | A6C G40U C61A |  | < 1e-05 s⁻¹ | < 1e-05 s⁻¹ | < 1e-05 s⁻¹
22 | A6G A12C C67U |  |  |  | < 1e-05 s⁻¹
23 | A6G A36C |  | < 1e-05 s⁻¹ | < 1e-05 s⁻¹ | < 1e-05 s⁻¹
24 | A6G A36U |  | < 1e-05 s⁻¹ | < 1e-05 s⁻¹ | < 1e-05 s⁻¹
25 | A6G A36U G41C A64G |  | < 1e-05 s⁻¹ | < 1e-05 s⁻¹ | < 1e-05 s⁻¹
26 | A6G C8G U31A G32U |  |  |  | < 1e-05 s⁻¹
27 | A6G G43U G60U |  |  |  | < 1e-05 s⁻¹
28 | A6U A39U U45A A52C |  |  |  | < 1e-05 s⁻¹
29 | A6U C10G A36C |  | < 1e-05 s⁻¹ |  | < 1e-05 s⁻¹
30 | A6U G37C C71U |  |  |  | < 1e-05 s⁻¹
31 | A6U G41U |  |  |  | < 1e-05 s⁻¹
32 | A6U U45G |  |  | 4.41e-05 ± 9.1e-06 s⁻¹ | < 1e-05 s⁻¹
